PMC7077331
No constants are given. Whether binding was seen depends on the method and setting. For some assays here: In cells and extracts the contact can be indirect. Some results given as binding are weak or reduced against the parent protein; the word gives no strength. Tags and fused reporters may be left off the sequences shown. One block for each molecule: values may come before it.

Chains of the proteins cited; added tags and fusions are not shown. A line that says so, or that is headed by a name, gives the form on record, which may keep a tag or linker. Residues count along the entry.
Fibrillin 1 (FBN1) 225 aa prey peptide (aa 2647-2871), GAL4-AD fusion (P35555, residues 2647-2871): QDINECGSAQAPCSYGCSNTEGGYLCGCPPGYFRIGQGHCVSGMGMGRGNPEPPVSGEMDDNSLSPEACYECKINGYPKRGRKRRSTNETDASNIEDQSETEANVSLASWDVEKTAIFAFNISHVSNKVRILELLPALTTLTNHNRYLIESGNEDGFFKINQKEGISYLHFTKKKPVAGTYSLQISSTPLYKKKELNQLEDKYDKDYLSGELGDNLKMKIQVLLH
HA-tagged FBN1 (188 aa) peptide, in vitro translated (P35555, residues 2684-2871): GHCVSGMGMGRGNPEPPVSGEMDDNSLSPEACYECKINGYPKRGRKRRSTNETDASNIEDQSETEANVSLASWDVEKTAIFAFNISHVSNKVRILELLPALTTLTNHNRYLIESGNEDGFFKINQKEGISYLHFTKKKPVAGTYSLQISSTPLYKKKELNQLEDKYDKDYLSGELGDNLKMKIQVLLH

Columns and labels:
[1] = target: T1, full length hOAS1-p42 isoform fused to the GAL4-BD domain (pGBKT7) (human) (UniProt P00973); assay: two-hybrid; Matchmaker Gold library screen: GAL4-BD bait in Y2HGold mated at 30 °C for 24 h with Y187 holding a universal human cDNA library fused to GAL4-AD; selection on DDO, then TDO/A and QDO/A; inserts of colonies from QDO/A plates sequenced; about 2 x 10^6 clones screened
T1 sequence: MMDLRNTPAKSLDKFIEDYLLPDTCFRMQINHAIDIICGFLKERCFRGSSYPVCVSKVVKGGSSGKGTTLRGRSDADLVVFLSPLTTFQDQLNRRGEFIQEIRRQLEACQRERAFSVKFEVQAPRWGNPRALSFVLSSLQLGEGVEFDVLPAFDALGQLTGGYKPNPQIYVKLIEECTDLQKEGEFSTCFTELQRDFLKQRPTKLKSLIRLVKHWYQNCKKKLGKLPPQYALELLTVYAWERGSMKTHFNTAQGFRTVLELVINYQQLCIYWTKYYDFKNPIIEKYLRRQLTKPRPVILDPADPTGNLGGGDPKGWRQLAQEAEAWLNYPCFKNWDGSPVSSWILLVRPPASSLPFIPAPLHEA

[2] = target: T2, c-myc-tagged full-length hOAS1 p42, in vitro translated (human) (UniProt P00973); assay: co-IP; c-myc-tagged bait and HA-tagged prey peptide translated in vitro (wheat germ extract, [35S]-methionine), incubated together 1 h at room temperature, precipitated overnight at 4 °C with anti-c-myc or anti-HA agarose beads; non-specific IgG beads as control; SDS-PAGE and autoradiography
T2 sequence (chain, [^35S]-methionine (radiolabel)): T1 sequence

[3] = target: HA-tagged FBN1 (188 aa) peptide, in vitro translated (human) (UniProt P35555); assay: as above

Molecule: HA-tagged FBN1 (188 aa) peptide, in vitro translated (from UniProt P35555 2684-2871) (domain or fragment)
binding [2]: binds

B1: c-myc-tagged full-length hOAS1 p42, in vitro translated (protein, UniProt P00973-2 1-364)
chain: T1 sequence
modifications: [^35S]-methionine (radiolabel)
binding [3]: binds

Results, then the molecule that gave them:

binding [1]: binds
Molecule: Fibrillin 1 (FBN1) 188 aa prey peptide (aa 2684-2871), GAL4-AD fusion (from UniProt P35555 2684-2871) (domain or fragment)

binding [1]: binds
Molecule: Fibrillin 1 (FBN1) 225 aa prey peptide (aa 2647-2871), GAL4-AD fusion (from UniProt P35555 2647-2871) (domain or fragment)

binding [3]: no binding
B2: c-myc-tagged full-length hOAS1 p44, in vitro translated (protein, UniProt P00973-4 1-360)
chain: MMDLRNTPAKSLDKFIEDYLLPDTCFRMQINHAIDIICGFLKERCFRGSSYPVCVSKVVKGGSSGKGTTLRGRSDADLVVFLSPLTTFQDQLNRRGEFIQEIRRQLEACQRERAFSVKFEVQAPRWGNPRALSFVLSSLQLGEGVEFDVLPAFDALGQLTGGYKPNPQIYVKLIEECTDLQKEGEFSTCFTELQRDFLKQRPTKLKSLIRLVKHWYQNCKKKLGKLPPQYALELLTVYAWERGSMKTHFNTAQGFRTVLELVINYQQLCIYWTKYYDFKNPIIEKYLRRQLTKPRPVILDPADPTGNLGGGDPKGWRQLAQEAEAWLNYPCFKNWDGSPVSSWILLVNLTLVGRRNYTNN
modifications: [^35S]-methionine (radiolabel)
